Measurements as given in the BET-seq Pho4 binding data (Le et al. 2018).
This is one part of the list. The energies were worked out here from pooled read counts, against the library average; single values are noisy.

These sequences were tested against T1, Pho4 (S. cerevisiae) (UniProt P07270) (assay: relative binding free energy (BET-seq); higher = weaker binding). Settings: reference: library average.
T1 sequence: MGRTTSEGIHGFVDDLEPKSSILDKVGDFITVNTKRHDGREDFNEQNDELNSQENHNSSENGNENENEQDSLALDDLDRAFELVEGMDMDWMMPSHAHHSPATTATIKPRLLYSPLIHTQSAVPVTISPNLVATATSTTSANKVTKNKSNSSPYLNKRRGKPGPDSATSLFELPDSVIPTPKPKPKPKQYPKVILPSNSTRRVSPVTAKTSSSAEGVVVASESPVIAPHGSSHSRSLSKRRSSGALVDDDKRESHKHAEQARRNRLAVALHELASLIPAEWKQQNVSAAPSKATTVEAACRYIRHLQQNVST

| Sequence | relative binding free energy [kcal/mol] |
| --- | --- |
| TATTACACGTGATGGA | 0.17 |
| GTAAGCACGTGTTTCT | 0.1 |
| TCAGTCACGTGTAGTA | 0.07 |
| CTTAGCACGTGGATTG | 0.13 |
| GTGTACACGTGATGCG | 0.11 |
| AGCAGCACGTGAATGG | 0.24 |
| TTTAACACGTGCGTTA | -0.09 |
| CATTTCACGTGAGTAT | 0.43 |
| TCGTTCACGTGGTTGC | 0.27 |
| GCTTGCACGTGAGGAA | 0.36 |
| AGGTTCACGTGGTTGT | 0.29 |
| TAAAGCACGTGTGATG | -0.15 |
| TATTACACGTGAGTAG | 0.34 |
| GGGCTCACGTGCGTGG | 0.14 |
| AACAGCACGTGTGTGG | 0.07 |
| TGCTTCACGTGTTCTT | 0.37 |
| GGTAGCACGTGCTTGA | -0.13 |
| TATGCCACGTGGGGAA | -0.24 |
| ATAAGCACGTGTAGAG | -0.06 |
| TTATTCACGTGGCTCT | 0.13 |
| TTTTACACGTGGTTAG | 0.06 |
| GAAAGCACGTGTTCGG | 0.06 |
| GGTGCCACGTGGGGTC | -0.26 |

| Sequence | relative binding free energy [kcal/mol] |
| --- | --- |
| GAAGTCACGTGTTGTG | 0.28 |
| GTAGGCACGTGCGATT | 0.11 |
| AGAGTCACGTGGAGGA | 0.2 |
| TGTGTCACGTGTACTC | 0.11 |
| AGGAGCACGTGGGGAG | -0.19 |
| TTGGTCACGTGTATAG | 0.18 |
| TCATGCACGTGATGGT | 0 |
| AGTGGCACGTGTCTAG | -0.12 |
| GGATCCACGTGGTGTG | -0.06 |
| GTGCCCACGTGTGGGA | -0.07 |
| TAATTCACGTGTGAAT | 0.21 |
| GGCAACACGTGGGGGC | -0.1 |
| TTAGGCACGTGTCTGG | -0.21 |
| GGTTGCACGTGCTGTT | -0.02 |
| GTTGTCACGTGAGCTG | 0.36 |
| TATGTCACGTGTAGTG | 0.19 |
| TTAAGCACGTGGCTGG | -0.14 |
| CGATGCACGTGGATGT | -0.1 |
| GTCTTCACGTGTTTTC | 0.33 |
| GTATGCACGTGAGGCT | 0.2 |
| GGCAGCACGTGAGGGG | 0.22 |
| GTCTTCACGTGGTTAT | 0.33 |
| GGAGGCACGTGAGCGT | 0.14 |

| Sequence | relative binding free energy [kcal/mol] |
| --- | --- |
| TGGCGCACGTGGCGCG | -0.14 |
| GCGTTCACGTGTCGGG | 0.39 |
| GGCGACACGTGGGTGA | -0.17 |
| TACGTCACGTGGTTCG | 0.01 |
| GCTGGCACGTGAGGTT | 0.18 |
| ATTGCCACGTGGTCGG | -0.27 |
| AATCTCACGTGGATGT | 0.17 |
| CTATACACGTGTTTTT | 0 |
| GTTAACACGTGCGGTG | 0.1 |
| TCGCACACGTGTGGGG | 0.04 |
| ATATGCACGTGGTGGG | -0.1 |
| TTATCCACGTGTATGT | 0.07 |
| TGGAGCACGTGTGCAG | -0.14 |
| TGGTACACGTGGCGCG | -0.01 |
| AAGTTCACGTGTTGGT | 0.18 |
| GATTTCACGTGGAGCT | 0.45 |
| ATCATCACGTGAGGGG | 0.33 |
| GTGTTCACGTGAAAGG | 0.34 |
| GCGTACACGTGGGGAA | 0.01 |
| GTGAGCACGTGGGGCT | -0.21 |
| TTATGCACGTGACTTG | 0.07 |
| TCTGGCACGTGGGGAT | -0.06 |
| GTGAGCACGTGATGTA | 0.05 |

| Sequence | relative binding free energy [kcal/mol] |
| --- | --- |
| TTGATCACGTGGCGCG | 0.04 |
| TGCTACACGTGTGTGG | 0.1 |
| TAGTGCACGTGTGGGG | -0.04 |
| GTTAACACGTGTAAGA | 0.23 |
| TGTTGCACGTGGTGGA | 0 |
| TTATACACGTGTGCGA | -0.02 |
| GTTCTCACGTGATGAG | 0.33 |
| AAAGTCACGTGGAAGG | 0.33 |
| TTCAGCACGTGCGGGT | -0.07 |
| GAAGGCACGTGTAGGG | -0.09 |
| AATGTCACGTGTGCTT | 0.02 |
| GTTGTCACGTGAAAGA | 0.28 |
| GTGTTCACGTGCGCTG | 0.22 |
| AATGGCACGTGACTGG | 0.08 |
| GGGGTCACGTGCTTAG | 0.05 |
| CGTGCCACGTGGTGTT | -0.14 |
| CGTGGCACGTGGTCAT | -0.15 |
| TGGGGCACGTGAGCTC | 0.21 |
| ATTTACACGTGGTTTA | 0.01 |
| GGAGGCACGTGTCTAG | -0.16 |
| AACAGCACGTGGGTGG | -0.17 |
| GTTAACACGTGTCTTT | -0.05 |
| TTGGCCACGTGGTGCT | -0.12 |

| Sequence | relative binding free energy [kcal/mol] |
| --- | --- |
| GTTCTCACGTGATGAT | 0.31 |
| TGCAGCACGTGTGGAG | 0.05 |
| TGGGACACGTGCAGTT | -0.03 |
| CAGTGCACGTGTGCGG | -0.25 |
| TCGCGCACGTGCGGGT | -0.19 |
| GGTGGCACGTGAAAGA | 0.23 |
| GGCTGCACGTGACGGT | 0.2 |
| TGGTTCACGTGCAGAG | 0.29 |
| TATTTCACGTGACTTT | 0.37 |
| TGGAACACGTGGAGGT | 0.13 |
| TAGCCCACGTGGGGGG | -0.27 |
| CGCTTCACGTGTTGGA | 0.36 |
| AGGGACACGTGGATCG | 0.08 |
| GTAAACACGTGAAGGG | 0.33 |
| GTGTGCACGTGAGTCG | 0.16 |
| TGTGTCACGTGTACGA | 0.1 |
| CTTAGCACGTGGTATG | -0.18 |
| GGTTTCACGTGGACGG | 0.2 |
| TAGAGCACGTGAAGCG | 0.34 |
| TGAGTCACGTGTTATG | 0.08 |
| TTTGACACGTGGGACA | -0.03 |
| GTGAGCACGTGAGGCT | 0.04 |
| CGATACACGTGTTTGG | 0.06 |
